No constants are given. Whether binding was seen depends on the method and setting. Binding seen in cells or lysates may run through a third protein. Some results given as binding are weak or reduced against the parent protein; the word gives no strength. Tags and fused reporters may be left off the sequences shown.
What was measured:
[1] = molecular target: T1, HA-DHX29 (full-length, FL-DHX29) (human) (UniProt Q7Z478); experiment: co-IP; 293T cells cotransfected; whole cell lysates immunoprecipitated with anti-HA beads, immunoblotted with anti-Flag (Fig 5A, Fig 6A); also in RIG-I knockout 293T cells (S5D Fig)
T1 sequence: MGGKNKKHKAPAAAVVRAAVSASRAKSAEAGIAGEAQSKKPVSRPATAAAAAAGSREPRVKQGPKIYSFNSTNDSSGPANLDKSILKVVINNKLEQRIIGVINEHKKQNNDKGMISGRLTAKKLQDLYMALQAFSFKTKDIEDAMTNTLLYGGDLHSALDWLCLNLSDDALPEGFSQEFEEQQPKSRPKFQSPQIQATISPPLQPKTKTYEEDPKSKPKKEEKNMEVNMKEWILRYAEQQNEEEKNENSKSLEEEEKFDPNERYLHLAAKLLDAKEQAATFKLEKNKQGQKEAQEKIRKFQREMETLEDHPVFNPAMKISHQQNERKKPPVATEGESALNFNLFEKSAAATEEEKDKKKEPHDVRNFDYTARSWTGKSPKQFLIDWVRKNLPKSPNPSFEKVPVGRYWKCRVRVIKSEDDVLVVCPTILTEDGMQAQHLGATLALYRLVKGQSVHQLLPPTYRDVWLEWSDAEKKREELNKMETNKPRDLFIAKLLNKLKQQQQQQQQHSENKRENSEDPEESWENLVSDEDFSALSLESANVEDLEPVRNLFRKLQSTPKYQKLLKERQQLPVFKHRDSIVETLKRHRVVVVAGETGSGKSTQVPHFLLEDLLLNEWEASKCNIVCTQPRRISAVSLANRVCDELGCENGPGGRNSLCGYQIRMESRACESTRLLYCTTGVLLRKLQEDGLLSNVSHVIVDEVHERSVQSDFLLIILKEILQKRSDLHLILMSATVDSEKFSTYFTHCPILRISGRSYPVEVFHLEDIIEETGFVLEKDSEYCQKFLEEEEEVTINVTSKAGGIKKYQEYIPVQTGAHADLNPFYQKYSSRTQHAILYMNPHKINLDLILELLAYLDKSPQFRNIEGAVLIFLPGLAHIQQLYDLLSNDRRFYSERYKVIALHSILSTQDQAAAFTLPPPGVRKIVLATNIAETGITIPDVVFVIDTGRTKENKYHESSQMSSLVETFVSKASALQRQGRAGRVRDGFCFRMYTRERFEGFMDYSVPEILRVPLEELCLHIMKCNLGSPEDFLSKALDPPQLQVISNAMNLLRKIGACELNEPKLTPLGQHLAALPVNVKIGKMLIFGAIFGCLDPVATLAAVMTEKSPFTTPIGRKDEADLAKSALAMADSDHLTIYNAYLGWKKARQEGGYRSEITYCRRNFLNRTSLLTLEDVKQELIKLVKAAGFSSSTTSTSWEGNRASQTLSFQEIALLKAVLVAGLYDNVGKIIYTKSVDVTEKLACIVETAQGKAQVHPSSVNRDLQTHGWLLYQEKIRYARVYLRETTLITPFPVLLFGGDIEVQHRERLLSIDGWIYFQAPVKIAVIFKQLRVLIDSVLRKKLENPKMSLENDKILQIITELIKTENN

[2] = molecular target: T2, HA-DHX29d [830-1369 aa] (human) (UniProt Q7Z478); experiment: as above
T2 sequence: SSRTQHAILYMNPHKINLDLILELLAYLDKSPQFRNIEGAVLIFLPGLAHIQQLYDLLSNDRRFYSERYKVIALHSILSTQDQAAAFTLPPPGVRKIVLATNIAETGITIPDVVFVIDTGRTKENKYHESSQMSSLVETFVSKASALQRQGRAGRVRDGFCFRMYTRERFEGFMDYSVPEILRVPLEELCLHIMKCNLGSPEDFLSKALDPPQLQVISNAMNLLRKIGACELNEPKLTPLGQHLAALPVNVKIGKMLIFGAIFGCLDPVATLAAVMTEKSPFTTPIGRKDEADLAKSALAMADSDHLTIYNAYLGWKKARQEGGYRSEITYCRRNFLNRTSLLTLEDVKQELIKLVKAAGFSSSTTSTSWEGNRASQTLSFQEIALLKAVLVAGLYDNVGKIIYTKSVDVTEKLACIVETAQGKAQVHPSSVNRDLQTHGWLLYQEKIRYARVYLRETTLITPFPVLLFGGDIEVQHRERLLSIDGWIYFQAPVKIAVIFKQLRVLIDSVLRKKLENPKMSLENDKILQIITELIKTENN

binding [1]: binds
binding [2]: no binding
B1: Flag-MDA5 (full-length, FL-MDA5) (protein, UniProt Q9BYX4 1-1025)
chain: MSNGYSTDENFRYLISCFRARVKMYIQVEPVLDYLTFLPAEVKEQIQRTVATSGNMQAVELLLSTLEKGVWHLGWTREFVEALRRTGSPLAARYMNPELTDLPSPSFENAHDEYLQLLNLLQPTLVDKLLVRDVLDKCMEEELLTIEDRNRIAAAENNGNESGVRELLKRIVQKENWFSAFLNVLRQTGNNELVQELTGSDCSESNAEIENLSQVDGPQVEEQLLSTTVQPNLEKEVWGMENNSSESSFADSSVVSESDTSLAEGSVSCLDESLGHNSNMGSDSGTMGSDSDEENVAARASPEPELQLRPYQMEVAQPALEGKNIIICLPTGSGKTRVAVYIAKDHLDKKKKASEPGKVIVLVNKVLLVEQLFRKEFQPFLKKWYRVIGLSGDTQLKISFPEVVKSCDIIISTAQILENSLLNLENGEDAGVQLSDFSLIIIDECHHTNKEAVYNNIMRHYLMQKLKNNRLKKENKPVIPLPQILGLTASPGVGGATKQAKAEEHILKLCANLDAFTIKTVKENLDQLKNQIQEPCKKFAIADATREDPFKEKLLEIMTRIQTYCQMSPMSDFGTQPYEQWAIQMEKKAAKEGNRKERVCAEHLRKYNEALQINDTIRMIDAYTHLETFYNEEKDKKFAVIEDDSDEGGDDEYCDGDEDEDDLKKPLKLDETDRFLMTLFFENNKMLKRLAENPEYENEKLTKLRNTIMEQYTRTEESARGIIFTKTRQSAYALSQWITENEKFAEVGVKAHHLIGAGHSSEFKPMTQNEQKEVISKFRTGKINLLIATTVAEEGLDIKECNIVIRYGLVTNEIAMVQARGRARADESTYVLVAHSGSGVIEHETVNDFREKMMYKAIHCVQNMKPEEYAHKILELQMQSIMEKKMKTKRNIAKHYKNNPSLITFLCKNCSVLACSGEDIHVIEKMHHVNMTPEFKELYIVRENKALQKKCADYQINGEIICKCGQAWGTMMVHKGLDLPCLKIRNFVVVFKNNSTKKQYKKWVELPITFPNLDYSECCLFSDED

— PMC5834211
